Results: PubChem BioAssay AID686979 (National Center for Advancing Translational Sciences (NCATS), 2013)
In all, about 420,000 compounds went through this assay and about 50,000 (12%) were called active. Inconclusive results, whose numbers are uncertain, are shown with a selection of clear calls. Calls come from the whole dose curve; as a rule, active = well fitted inhibition curve with a large enough effect; inconclusive = small, poorly fitted or top-dose-only effect; inactive = flat fitted curve, though single readings scatter. Potencies of inconclusive entries are left out as doubtful fits.

experiment: qHTS for Inhibitors of human tyrosyl-DNA phosphodiesterase 1 (TDP1): qHTS in cells in presence of CPT; settings: chicken DT40 Tdp1-/-;hTDP1 cells + 20 nM CPT, ATP luminescence, 48 h; series mostly up to 46.2 µM; note: nearly all actives have a fitted effect of over 55% in size
Outline: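 Chicken DT40 Tdp1-/- cells complemented with human TDP1, 400 cells/well, exposed to compounds plus 20 nM camptothecin for at least 48 h at 37 C; viability read as ATP content by CellTiter-Glo luminescence.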
Potency is the fitted concentration of half-maximal effect; tags give direction and shape of the fitted curve.

Row | Structure (SMILES) | Potency
1 | COc1cc(C)ccc1OCC(=O)Nc1ccc2c(c1)OCO2 | inconclusive [inhibitor, partial curve]
2 | COc1ccccc1CNC(=O)COCc1cc(-c2cccs2)on1 | inconclusive [inhibitor, single point]
3 | Cc1ccc(N(CC(C)C)S(=O)(=O)c2nnc(NC(=O)C(C)C)s2)cc1 | inconclusive [inhibitor, single point]
4 | O=c1cc(CN2CCN(Cc3ccccc3)CC2)c2cc(O)ccc2o1 | inconclusive [inhibitor, partial curve]
5 | COc1ccccc1N1CCN(Cc2cc(=O)oc3cc(C)ccc23)CC1 | active: 23.1 µM
6 | Cn1c(Cn2nnc3ccccc32)nnc1SCC(=O)NCc1ccc2c(c1)OCO2 | inactive
7 | Cc1ccccc1NS(=O)(=O)c1ccc(C(=O)N2CCCCCCC2)cc1 | inconclusive [inhibitor, single point]
8 | Cc1cc(=O)c2ccc3ccccc3c2[nH]1 | inconclusive [inhibitor, single point]
9 | COCCn1c2nc(=O)n(-c3ccccc3)c(=O)c-2nc2ccccc21 | inconclusive [inhibitor, single point]
10 | Cc1nn(C(C)C(=O)Nc2ccccc2C(F)(F)F)c(=O)c2c1sc1ccccc12 (stereo unspecified) | inactive
11 | CNNC(=S)NC1CC2CC1C1C=CCC21 (stereo unspecified) | inactive
12 | Cc1ccc(NC(=O)c2ccc(NCCCN3CCOCC3)c([N+](=O)[O-])c2)cc1Cl | inconclusive [inhibitor, single point]
13 | C[C@]12CC[C@H](O)CC1=CCC1C2CC[C@@]2(C)C1CCC21OCCO1 (stereo partly specified) | inconclusive [inhibitor, single point]
14 | COc1ccc(-c2nc(NC(=O)c3cc(C(C)(C)C)nn3C)sc2C)cc1 | inconclusive [inhibitor, single point]
15 | Cc1cc2c(cc1C)N(Cc1ccc(Cl)cc1)C1=NCCCN12 | active: 2.59 µM
16 | Cc1ccc(CNC(=O)c2cnc3c(-c4ccc(F)cc4)c(C)nn3c2C)o1 | inactive
17 | COc1ccc(C(=O)NCCc2cc3c(OC)ccc(OC)c3[nH]c2=O)cc1OC | inconclusive [inhibitor, single point]
18 | CCC(Sc1nc2sc(C(=O)OC)c(C)c2c(=O)n1N)C(=O)N(CC)CC (stereo unspecified) | inconclusive [inhibitor, single point]
19 | COC(=O)C(C)N1C(=O)S/C(=C\c2cc(C)n(-c3ccccn3)c2C)C1=O (stereo unspecified) | active: 13 µM
20 | Brc1ccc(OCc2ccccc2)c(CNCC2CCCO2)c1 (stereo unspecified) | inconclusive [inhibitor, single point]
21 | CC(NC(=O)c1ccco1)c1nc(-c2ccc(Cl)cc2)no1 (stereo unspecified) | inconclusive [inhibitor, single point]
22 | Cc1occc1C(=O)Nc1cccc(-c2nc(CNC(=O)c3ccc4ccccc4n3)c(C)o2)c1 | active: 8.2 µM
23 | Cc1ccccc1-n1ccnc1SCC(=O)O | inactive
24 | CCOC(=O)C1(C)CCCCCN1C(=O)c1ccc(OC)cc1 (stereo unspecified) | active: 16.4 µM

Row | Structure (SMILES) | Potency
25 | Cc1ccc2oc(-c3ccc(Cl)c(NC(=O)c4cc5ccccc5o4)c3)nc2c1 | inactive
26 | CC(C)c1ccccc1-n1c(SCC(=O)N2CCN(c3ccccc3)CC2)nnc1-c1cccnc1 | active: 16.4 µM
27 | C[C@H](CO)N1C[C@H](C)[C@@H](CN(C)S(=O)(=O)c2ccc(Cl)cc2)Oc2ccc(NS(=O)(=O)c3ccccc3)cc2CC1=O | active: 10.3 µM
28 | COc1ccc(N(CC(=O)NC(C)C)S(=O)(=O)c2ccc(NC(C)=O)cc2)cc1 | inactive
29 | CCOC(=O)N1CCN(C(=O)CS(=O)Cc2nc(-c3ccc(C)cc3)oc2C)CC1 (stereo unspecified) | inactive
30 | COc1ccc(/C=C/C(=O)Nc2cc(S(=O)(=O)N3CCCCC3)ccc2N2CCCCC2)cc1OC | inconclusive [inhibitor, full curve]
31 | C=C1CCC[C@]2(C)C[C@H]3OC(=O)C(CN4CC(C)OC(C)C4)[C@H]3C[C@@H]12 (stereo partly specified) | inconclusive [inhibitor, single point]
32 | COc1ccc(N2CC(C(=O)Nc3nc4ccccc4s3)CC2=O)cc1 (stereo unspecified) | inconclusive [inhibitor, single point]
33 | CN(C(=O)c1cnc(N2CCN(c3ncccn3)CC2)c2ccccc12)c1ccc(Cl)cc1 | inconclusive [inhibitor, single point]
34 | O=C(CCN1CCOCC1)N/N=C/c1cc(Br)cc(Br)c1O | active: 6.51 µM
35 | CCOc1ccc(CN(C)C(=O)c2ccc3c(c2)NC(=O)C(C)S3)cc1OC (stereo unspecified) | inconclusive [inhibitor, single point]
36 | O=C1C2C3c4ccccc4C(c4ccccc43)[C@@H]2c2nc3ccccc3n21 (stereo partly specified) | active: 11.6 µM
37 | Cn1nc(C(=O)NCCCN2CCCCC2)c2c1-c1ccccc1SC2 | inconclusive [inhibitor, single point]
38 | CN1CCN(c2nc(-c3ccccc3C(F)(F)F)nc3ccccc23)CC1 | inactive
39 | COc1ccccc1-c1nccc(NCc2ccccc2)n1 | inconclusive [inhibitor, single point]
40 | CC(=O)Oc1cccc(C2C3=C(CC(C)(C)CC3=O)Nc3ccccc3N2C(C)=O)c1 (stereo unspecified) | inconclusive [inhibitor, partial curve]
41 | Cc1ccc(NC(=O)C2CC(=O)Nc3ncnn32)c(C)c1 (stereo unspecified) | inactive
42 | O=C(COC(=O)c1ccccc1C(=O)c1ccc(Cl)cc1)NCCc1ccccc1 | inconclusive [inhibitor, single point]
43 | COc1ccc(CCNC(=O)C2CCCN(c3ncnc4c3nc3n4CCCCC3)C2)c(OC)c1 (stereo unspecified) | inconclusive [inhibitor, single point]
44 | COc1ccc(CCNC(=O)C(C)n2nc(C)c3sc4ccccc4c3c2=O)c(OC)c1 (stereo unspecified) | active: 20.6 µM
45 | O=C(Nc1nc2ccccc2s1)c1cc(-c2ccco2)nc2ccccc12 | active: 18.4 µM
46 | Cc1ccc(S(=O)(=O)Nc2ccc3nc(-c4cccc(Cl)c4)oc3c2)cc1 | inconclusive [inhibitor, single point]
47 | O=C(Nc1ccc(Cl)cc1)Nc1nnc(SCc2ccc(Cl)cc2)s1 | inactive
48 | CCCn1c(SCC(=O)Nc2nc(-c3ccc(OC)cc3)cs2)nc2c1c(=O)n(C)c(=O)n2C | inconclusive [inhibitor, full curve, poor fit]

Row | Structure (SMILES) | Potency
49 | Cc1ccc(S(=O)(=O)/N=C(/Nc2ccccc2C)c2ccccc2)cc1 | inconclusive [inhibitor, single point]
50 | O=C1/C(=C/c2ccccn2)SC(=S)N1Nc1ncc(C(F)(F)F)cc1Cl | active: 8.2 µM
51 | CC[C@@H]1C/C=C\Cc2ccccc2[C@H](C(=O)C[C@@H](O)CC(C)=O)OC1=O | active: 13 µM
52 | COc1cc(N/C=C2\CC(=O)NC(C)=C2C#N)cc(OC)c1OC | inconclusive [inhibitor, single point]
53 | COc1ccc(CN2CC(C(=O)NCCCN3CCCC(C)C3)CC2=O)cc1 (stereo unspecified) | inactive
54 | CCC(c1nnnn1Cc1ccc(OC)cc1)N(CCCO)Cc1cc2cc3c(cc2[nH]c1=O)OCO3 (stereo unspecified) | inconclusive [inhibitor, partial curve]
55 | Cc1cc(N2CCOCC2)nc2ccc(NC(=O)CCC(=O)N3CCN(c4ccc(F)cc4)CC3)cc12 | active: 9.2 µM
56 | CCN(CCCNC(=O)c1cc2c(=O)n(C)c3ccccc3c2s1)c1ccccc1 | inconclusive [inhibitor, single point]
57 | Cc1ccc(OCC(=O)Nc2cccc(S(=O)(=O)N3CCCC3)c2)cc1C | inactive
58 | CCc1nnc(NC(=O)CSc2ccc(-c3cccs3)nn2)s1 | inactive
59 | O=c1oc2ccccc2c(Nc2cccc3ccccc23)c1[N+](=O)[O-] | inconclusive [inhibitor, single point]
60 | NC(=O)C1=C[C@H](c2ccc(Br)cc2)C[C@H](OCc2ccc(CO)cc2)O1 | active: 13 µM
61 | O=C1C=C(c2ccccc2Oc2ccccc2)C[C@@H](c2ccc(F)cc2)C1 | inconclusive [inhibitor, single point]
62 | CCOC(=O)C1=CCN(S(=O)(=O)c2ccccc2Cl)C1c1ccccc1 (stereo unspecified) | inconclusive [inhibitor, partial curve]
63 | COc1cccc(-c2cn3c(n2)sc2cc(C(=O)NC4CCCCC4)ccc23)c1 | inconclusive [inhibitor, partial curve]
64 | COc1ccc(N2C(=O)C(C)C(Cc3ccc(C)cc3)C2=O)cc1 (stereo unspecified) | inactive
65 | COc1cccc(CNC(=O)[C@@H]2CCCN2C(=O)[C@@H]2CCCN2C(=O)c2cccs2)c1 | inactive
66 | COc1ccc(OC)c(S(=O)(=O)N2CCN(c3ncccn3)CC2)c1 | inconclusive [inhibitor, single point]
67 | COC(=O)CSc1nc2cc(OC)ccc2cc1C#N | inconclusive [inhibitor, single point]
68 | COc1ccc(N2Cc3ccccc3C2=O)cc1 | inconclusive [inhibitor, single point]
69 | O=C(Cn1c(=O)n(Cc2ccco2)c(=O)c2oc3ccccc3c21)Nc1ccccc1 | inconclusive [inhibitor, single point]
70 | CNC(=S)N/N=C/c1ccc(OCc2ccccc2)c(Br)c1 | active: 9.2 µM
71 | COc1ccc(/C=N/NC(=O)c2cccc([N+](=O)[O-])c2)cc1OS(=O)(=O)c1ccc(C)cc1 | active: 4.11 µM
